Source: publication PMC4336329 (PLoS ONE, 2015)
Among all 310,000 compounds or so, about 2,200 (0.71%) showed an effect of 50% or more. Effects have a minus sign here. The list shows a part of the results.

What follows are compounds tested against human ether-à-go-go-related gene (hERG) potassium channel (human, UniProt Q12809) (assay: primary screen, population patch clamp on CHO cells stably expressing hERG).
Sequence of human ether-à-go-go-related gene (hERG) potassium channel (Q12809 whole entry, looked up): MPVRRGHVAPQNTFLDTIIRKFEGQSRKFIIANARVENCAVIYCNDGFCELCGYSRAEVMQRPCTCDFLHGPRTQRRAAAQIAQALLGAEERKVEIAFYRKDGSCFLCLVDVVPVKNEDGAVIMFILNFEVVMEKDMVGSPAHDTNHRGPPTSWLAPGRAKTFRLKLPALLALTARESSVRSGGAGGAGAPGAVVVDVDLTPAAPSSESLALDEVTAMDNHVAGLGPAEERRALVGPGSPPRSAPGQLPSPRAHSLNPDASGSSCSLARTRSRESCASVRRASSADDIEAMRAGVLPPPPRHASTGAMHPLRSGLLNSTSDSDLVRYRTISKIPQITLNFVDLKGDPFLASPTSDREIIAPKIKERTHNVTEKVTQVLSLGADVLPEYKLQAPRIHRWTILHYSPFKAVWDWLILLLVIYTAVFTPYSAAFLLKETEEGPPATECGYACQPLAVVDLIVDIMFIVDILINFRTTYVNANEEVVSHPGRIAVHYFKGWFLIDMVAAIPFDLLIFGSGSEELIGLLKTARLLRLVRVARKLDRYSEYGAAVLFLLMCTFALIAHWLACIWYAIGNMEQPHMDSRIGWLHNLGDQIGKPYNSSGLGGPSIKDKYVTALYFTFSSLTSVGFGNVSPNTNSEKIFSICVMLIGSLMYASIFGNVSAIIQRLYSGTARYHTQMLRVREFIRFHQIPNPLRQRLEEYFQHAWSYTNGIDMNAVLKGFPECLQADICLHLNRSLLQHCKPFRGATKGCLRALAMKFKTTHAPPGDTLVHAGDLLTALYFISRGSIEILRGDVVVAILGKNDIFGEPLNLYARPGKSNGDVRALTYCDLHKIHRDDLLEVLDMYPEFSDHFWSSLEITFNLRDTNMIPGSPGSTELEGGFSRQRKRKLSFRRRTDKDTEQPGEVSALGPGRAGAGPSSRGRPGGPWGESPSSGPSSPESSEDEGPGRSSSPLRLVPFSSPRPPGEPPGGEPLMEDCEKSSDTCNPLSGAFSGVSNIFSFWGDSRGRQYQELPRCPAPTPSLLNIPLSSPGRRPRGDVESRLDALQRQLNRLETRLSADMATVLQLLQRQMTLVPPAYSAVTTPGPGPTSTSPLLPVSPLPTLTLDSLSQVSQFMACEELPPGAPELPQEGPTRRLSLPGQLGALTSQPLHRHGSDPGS

In order of rising “hERG current change (%, negative = inhibition) at 1uM” value:
1. O=C(NCc1ccc(F)cc1)c1cc(-c2ccncc2)nc2ccccc12  -33.2%
2. Cc1ccc2nc(C)cc(Nc3ccc4c(c3)OCCO4)c2c1.Cl  -27.9%
3. CCOc1ccc(NC(=O)CC2C(=O)N(c3ccc(OC)cc3)C(=O)N2CCc2cccs2)cc1 (stereo not drawn)  -19.1%
4. O=C(O)c1c(-c2ccccc2)c2oc3ccccc3c2[nH]c1=O  -5.12%
5. C=CCNc1nc(N2CCOCC2)c(C#N)c2c1CN(C)CC2  -5.08%
6. CCOC(=O)C1CCN(C(=O)c2ccccc2NS(=O)(=O)c2cc(C)ccc2C)CC1  -5.03%
7. Nc1ccnn1Cc1cccs1  -3.12%
8. COC(=O)c1cc(NC(=O)C2COc3ccccc3O2)cc(C(=O)OC)c1 (stereo not drawn)  -2.91%
9. COc1ccccc1OCC(=O)Nc1ccccc1C(=O)NCc1cccnc1  -2.19%
10. CCCCCn1c(=O)c(C(=O)NCc2ccco2)c(O)c2ccccc21  -1.78%
11. CCOC(=O)COc1ccc(C)cc1-c1ccno1  -1.23%
12. CCOc1ccc(C(=O)NCc2ccccc2)cc1Br  -0.39%
13. Cc1ccc(-c2nnc(SCC(=O)N/N=C/c3ccc(C)s3)n2-c2ccccc2)cc1  0.479%
14. Cc1ccc(CN(C)C(=O)c2cc(COc3ccc(F)cc3Cl)on2)o1  0.493%
15. Cc1ccc(C(=O)Nc2ccc(C)c(S(=O)(=O)N3CCOCC3)c2)c(C)c1  1.15%
16. Cc1ccc(-n2nnnc2-c2cnc(N3CCCC3)nc2C(F)(F)F)cc1  1.25%
17. COc1cccc(CC2(CO)CCN(Cc3ccc(NC(C)=O)cc3)CC2)c1  1.37%
18. Cn1c(NCc2ccc(Cl)cc2)nc2ccccc21  1.92%
19. COc1ccc(C(=O)NC(C)Cn2nc(C)cc2C)cc1OC1CCN(C(C)=O)CC1 (stereo not drawn)  2.14%
20. COc1ccc(C(=O)Nc2c(N)nc[nH]c2=O)cc1  3.41%
21. CCN1CCN(S(=O)(=O)c2cccc3nsnc23)CC1  3.58%
22. CC(C)(C)OC(=O)N1CCC(NC(=O)c2nc[nH]c2C(=O)NCC(=O)OCc2ccccc2)CC1  3.61%
23. Cc1ccc(/C=C2\SC(=S)N(C3CCS(=O)(=O)C3)C2=O)o1 (stereo not drawn)  4.32%
24. CC1Cc2nc(SCC(=O)NCC3CCCO3)n(-c3ccc(F)cc3)c(=O)c2S1 (stereo not drawn)  4.61%
25. COc1cccc(S(=O)(=O)NCc2ccc(C(=O)NCC3CCCO3)cc2)c1 (stereo not drawn)  5.12%
26. O=c1c(-c2ccc(F)cc2)coc2c3c(ccc12)OCCO3  5.3%
27. Cc1ccc(CN2CCN(Cc3c[nH]c4ccccc34)CC2CCO)o1 (stereo not drawn)  5.35%
28. CCOC(=O)N1CCN(Cc2cc(Cl)c3cccnc3c2O)CC1  5.41%
29. CC(C)C(=O)N1CCC(CN=CC2=C(O)CC(C)(C)CC2=O)CC1  5.83%
30. CCCCCCSc1nnc(-c2cnn(-c3ccccc3)c2-n2cccc2)n1C  6.19%
31. Cc1c(-c2ccccc2)sc2nc[nH]c(=S)c12  6.23%
32. COc1ccc(OCCOCCN2CCN(C)CC2)cc1.O=C(O)C(=O)O  6.48%
33. CC(C)c1ccc(/C=N/n2cnnc2)cc1  6.76%
34. CC1(C)CC(=O)C2=C(C1)OC(/N=C/N1CCCC1)=C(C#N)C2c1ccccc1 (stereo not drawn)  7.1%
35. O=S(=O)(N1CCOCC1)n1c(Cc2ccccc2)nc2ccccc21  7.65%
36. CCC(C)NC(=O)CSc1nc2ccc(N3CCOCC3)cc2c(=O)n1CCc1ccccc1 (stereo not drawn)  7.68%
37. N#C/C(=C/c1cn(-c2ccccc2)nc1-c1cccc(S(=O)(=O)N2CCOCC2)c1)C(=O)NCc1ccco1  8.12%
38. CCOC(=O)C1CCCN(S(=O)(=O)c2ccc(Br)c(OC)c2)C1 (stereo not drawn)  8.42%
39. CCOC(=O)C(Sc1n[nH]c(N)n1)c1ccccc1 (stereo not drawn)  8.42%
40. C=CCN(CC=C)C(=O)C1CCC(C(=O)N(CC=C)CC=C)CC1 (stereo not drawn)  8.47%
41. CCc1ccc(NC(=O)CSc2n[nH]c(C)c2[N+](=O)[O-])cc1  8.7%
42. Cc1cccc(Oc2nccc(C(F)(F)F)c2C(=O)Nc2ccc(F)cc2F)c1  8.88%
43. CC#CCN1c2ccccc2[C@]23C[C@@H](C(=O)OC)N(C(=O)c4ccc(Br)cc4)C2=NC(C(=O)OC)=C(C(=O)OC)[C@H]13  8.89%
44. CCC(=O)NC(NC(=S)Nc1ccccc1Br)C(Cl)(Cl)Cl (stereo not drawn)  9%
45. CCOC(=O)c1cc(-c2cccnc2)nn1-c1ccccc1  9.32%
46. CCOC(=O)NC(Nc1cc(C)ccn1)(C(F)(F)F)C(F)(F)F  9.58%
47. Cc1cccc(C)c1NC(=O)CN(C)C(C)C(=O)NCC(=O)Nc1ccc(F)c(F)c1F (stereo not drawn)  9.59%
48. CCCNC(=O)NC1CCCCCCC1  9.61%
49. COc1ccc(CNC(=O)C2CCCN(S(=O)(=O)c3ccc(Br)s3)C2)cc1 (stereo not drawn)  9.75%
50. CC(C)(O)c1cc2ccc(C#Cc3ccsc3)cc2c(=O)o1  9.8%
51. COC(=O)c1ccc(CSc2nc3c(c(=O)n2-c2ccc(Br)cc2)SCC3)o1  9.83%
52. C/C(=N\NC(=O)c1c([N+](=O)[O-])c(C)nn1C)c1ccc(NC(=O)c2ccc(C)o2)cc1  9.85%
53. O=C(NC(=O)N1CCN(c2ccc([N+](=O)[O-])cn2)CC1)c1c(Cl)cccc1Cl  9.87%
54. O=C(COc1ccc(S(=O)(=O)Nc2cccc(C(F)(F)F)c2)cc1)N1CCOCC1  9.93%
55. Cc1cc(C(=O)NC(CC(C)C)C(=O)O)cc(C)c1[N+](=O)[O-] (stereo not drawn)  9.99%
56. O=S(=O)(Nc1ccc(Cl)nn1)c1ccccc1  10.2%
57. COC(=O)C(C)Oc1ccc2c3c(c(=O)oc2c1)CCCCC3 (stereo not drawn)  10.5%
58. O=C(NCc1cccs1)C1CCCN1C(=O)Nc1cccc(Cl)c1 (stereo not drawn)  10.5%
59. COc1ccccc1OCC(O)COC(N)=O (stereo not drawn)  10.7%
60. COc1ccc(C(=O)CSC#N)cc1OC  10.8%
61. O=C(CSC1=NCCN1)Nc1ccccc1[N+](=O)[O-]  10.9%
62. COc1ccc(C(=O)N2CCCC(N3CCN(c4ccccc4F)CC3)C2)c(OC)n1 (stereo not drawn)  11%
63. Cc1nn(Cc2ccccc2Cl)c(C)c1NC(=O)/C=C/c1cnn(C)c1  11.2%
64. O=C(CN(c1cccc(C(F)(F)F)c1)S(=O)(=O)c1ccc(Cl)c([N+](=O)[O-])c1)NCc1ccc(F)cc1  11.3%
65. CN1CCN(C(=S)Nc2cccc(C(F)(F)F)c2)CC1  11.6%
66. O=C(NCCOc1ccccc1Cl)C(=O)c1c[nH]c2ccccc12  11.6%
67. COc1ccc2c(c1)sc1nc(=O)ccn12  12.1%
68. CN1CCN(C(=O)CN(c2cc(C(F)(F)F)ccc2Cl)S(C)(=O)=O)CC1  12.6%
69. O=C1C=C(O)c2c(O)cccc2C1=O  12.7%
70. O=C(NC1CCCCC1)c1c2c(nc3ccccc13)CCC2  13%
71. O=C(N/N=C/c1c(F)c(F)c(F)c(F)c1F)c1cccc(S(=O)(=O)N2CCOCC2)c1  13.4%
72. FC(F)(F)c1nc(-c2ccncc2)ncc1-c1nnnn1-c1ccccc1  13.6%
73. COc1ccc(/C=C2\Cc3ccccc3C2=O)cc1OC  14.1%
74. N#CCc1ccc(NS(=O)(=O)c2ccc(C3CCCCC3)cc2)cc1  14.4%
75. CC(C)(C)OC(=O)NCc1ccc(CNC(=O)c2nc[nH]c2C(=O)N2CCN(C(=O)OC(C)(C)C)CC2)cc1  14.4%
76. O=C(N/N=C/c1ccc([N+](=O)[O-])o1)c1cc(-c2ccc(-c3ccccc3)cc2)nc2ccccc12  14.8%
77. O=C(CN1CCN(S(=O)(=O)c2ccccc2)CC1)NCCc1ccccc1  15%
78. O=C1CC(C(=O)N2CCc3ccccc32)CN1c1ccccc1 (stereo not drawn)  15.2%
79. C[CH2][Hg][S]c1ccccc1C(=O)[O-].[Na+]  15.9%
80. COc1cc(C(=O)OCC(=O)c2ccccc2)cc2c1OCCO2  16.7%
81. C/C(CC(=O)Nc1cccnc1)=N\NC(=O)C(=O)Nc1cccc(C)c1  17%
82. COc1cc(NC(=O)COC(=O)Cc2ccc(-c3ccccc3)cc2)cc(OC)c1  17.4%
83. O=C(NN=C1c2ccccc2-c2ccccc21)c1cccc(Br)c1  17.7%
84. O=C(NCCc1c[nH]c2ccccc12)C(=O)NCC1CCCO1 (stereo not drawn)  18.2%
85. CC(=O)Nc1cccc(O)c1  18.4%
86. Cc1ccc(NC(=S)N2CCCC2)cc1C  18.9%
87. O=C(NC(=S)Nc1c(Cl)ccc2nsnc12)c1ccco1  22.9%
88. Fc1cccc(F)c1-c1nc2c(s1)CCc1onc(-c3ccc(Br)cc3)c1-2  24.3%
89. CC(C)c1ccc(OCC(=O)NCCO)cc1  26.5%
90. CCOC(=O)CNC(=O)COc1coc(CN2CCN(c3ccccc3F)CC2)cc1=O  42.8%
